167 variants from the RNAGym collection of RNA variant scans (doi:10.7554/elife.90254) can be followed below.

B1: LINE1-full (parent)
chain: UACGUAGGUGGUUUUCCCCUGAUAGUGCUAAGGGGGCCUGGAAGUUUGGACUGGGCAGAGCUCAACACAGCGUGGCAAAGUGGCUGUGGCUAGACUGCCUCUCUGGAUUCCUCGUCACUCAGCAGGGCAUCUCUGAGAGAAAUGCC

The source gives no read counts; variants with many changes may rest on few reads.

In the data set the parent is B1. Nature of the data set: self-cleavage, relative activity (ratio to wild type); higher = more cleavage; in vitro, sequencing; the parent is a self-cleaving ribozyme.
For the variant A22U A79G A138G, the self-cleavage came out at 1.15.

On to A22G U47A G97A, for which the self-cleavage amounted to 0.41.

For the variant U23C U47C C51U U73C A121U, the self-cleavage turned out to be 2.3.

Consider G25A U73A U87C, for which the self-cleavage is 0.07.

On to A24G U39C U46A U52A U62C A78G, for which the self-cleavage stood at 0.12.

A22G U47C U52C: the self-cleavage turned out to be 0.35.

For A22U G25A U45C C56G A69C A121U, the self-cleavage was 0.03.

Consider A24U G32C U108C, for which the self-cleavage was 1.88.

A22G U73A U115C A117U G126A: the self-cleavage stood at 2.01.

For A24G U26C A94G C95U, the self-cleavage was 0.

A22U A64U G105A: the self-cleavage was 0.43.

For A24G A124U U143A, the self-cleavage was found to be 1.1.

Take U23C U73A A121G A124U: the self-cleavage amounted to 1.36.

A22U A59G U73C A142G: the self-cleavage turned out to be 0.28.

A24U A50G A57G C63U: the self-cleavage is 0.16.

In the case of A24G U39C A79G, the self-cleavage came out at 1.06.

Take U23C A64U C128A A138G: the self-cleavage was 0.44.

For A24G A43G U108C A117U, the self-cleavage was 2.15.

With U23A U26A A142G, the self-cleavage was determined as 0.88.

In the case of U23C U46C C118U, the self-cleavage worked out at 1.25.

G25U G35U A79G: the self-cleavage amounted to 1.03.

As to U23C A77C U115A, the self-cleavage stood at 0.53.

For U23C U45G A117G, the self-cleavage amounted to 1.06.

Regarding A24U U47C A141G, the self-cleavage was 2.17.

Turning to A24G U46A U85C U91A A138G U143A, the self-cleavage turned out to be 0.

In the case of U23A A64G A67U A77G, the self-cleavage is 0.27.

As for U23C A69U A78U, the self-cleavage turned out to be 0.13.

G25A A107G U115C: the self-cleavage was 1.84.

On to A22U U23C U62C A77U U134A A142G, for which the self-cleavage came to 0.

With A24C A129G A136U, the self-cleavage was 1.15.

As to A24G U26C U52C, the self-cleavage was 1.31.

In the case of A22U A42G A43G C71U U115C, the self-cleavage stood at 1.18.

Take U23A U45C U130C A136U: the self-cleavage turned out to be 1.

Consider U23A U45C U62A U87C, for which the self-cleavage is 0.

A22U A31G U46A U47A U96A A124G: the self-cleavage turned out to be 0.1.

As to U23G G72A U87A G114A, the self-cleavage was found to be 0.05.

Regarding A22U U52A A64C, the self-cleavage was found to be 0.44.

As for A22U U45A G80A A107G U115A U130C, the self-cleavage was 2.99.

Take A24G A65G U91G A140G: the self-cleavage was found to be 0.

In the case of U23A U112C A141G A142G, the self-cleavage stood at 1.31.

As to A24G C38A U47C A124U, the self-cleavage worked out at 0.21.

U23C A30C A50G U143C: the self-cleavage is 1.15.

For U23A U29C A67U A77G, the self-cleavage came out at 0.36.

On to U23C A50G A94G C128A, for which the self-cleavage is 0.

U23C U81C A117C A140G: the self-cleavage stood at 1.02.

For A24G U52C U91C A140U, the self-cleavage was 1.1.

As for U23G U73C A77U U85G, the self-cleavage turned out to be 1.31.

Consider U23A C28A U87A U102C, for which the self-cleavage worked out at 0.07.

In the case of A22U G54A A136G, the self-cleavage was determined as 0.9.

On to A22G U52A G80A U108C G114A, for which the self-cleavage is 2.69.

For A24G U96A C146U, the self-cleavage was 0.19.

A22G U62A C123U U143A: the self-cleavage is 0.05.

A24G G48A C120U: the self-cleavage turned out to be 0.93.

Regarding A22G U87C A117U A121G, the self-cleavage was 0.

As to A24G U96C U143A, the self-cleavage was 0.18.

Consider A24G U73C A117U, for which the self-cleavage came to 2.02.

Turning to A22U A78G U87A A124G, the self-cleavage is 0.

Consider A24U C56U U91A U109A U130C, for which the self-cleavage came to 0.08.

With A22U U29G U100C, the self-cleavage came out at 1.73.

As to U23C C61U C99U, the self-cleavage was found to be 0.02.

For the variant A22G U62A A117G U130C, the self-cleavage was determined as 0.47.

As to U23A A67U A94G U130A, the self-cleavage stood at 0.16.

For U23A A42G A69U G72A, the self-cleavage was 0.08.

A22G U102C U108C: the self-cleavage was 0.44.

For the variant A22G U62C C123U, the self-cleavage stood at 0.06.

As for G25A A78G U112C, the self-cleavage turned out to be 0.44.

Take A22U G35A A121U: the self-cleavage is 0.67.

In the case of A24G U62C A136G, the self-cleavage worked out at 0.05.

For the variant A24U U47C A57U U73A, the self-cleavage amounted to 0.19.

A22U A50U A79G A124G: the self-cleavage came out at 0.84.

Regarding U23C G44A A129U U130C, the self-cleavage worked out at 1.55.

As to A24G U62C U96C, the self-cleavage was found to be 0.

Regarding A22G U119C C128A, the self-cleavage was 0.65.

Turning to U23C G48A U112C, the self-cleavage amounted to 0.98.

Take G25A U46C U104C: the self-cleavage was found to be 1.56.

Consider A24G G40C A57G U91A, for which the self-cleavage amounted to 0.41.

For A24U U47A A50C U85C, the self-cleavage is 0.

Consider A24G U91A U119C, for which the self-cleavage stood at 0.89.

On to A24C A69G U91A, for which the self-cleavage is 0.27.

With G25A G33A A43G G125A, the self-cleavage stood at 0.8.

Turning to A24U A77G A124G, the self-cleavage worked out at 1.2.

As for G25A C95U U100G U119A A138G, the self-cleavage was found to be 0.

For U23A A43G U45G, the self-cleavage turned out to be 1.37.

On to G25A U85A C123U A136G, for which the self-cleavage was found to be 0.13.

Regarding A22G U46G U81C, the self-cleavage was 0.77.

Turning to U23A A64G U85A U115C, the self-cleavage amounted to 0.12.

Regarding A24U U39A A117G, the self-cleavage turned out to be 1.68.

With U23C U45C A107G, the self-cleavage came to 1.53.

Consider A24U A79U U96A, for which the self-cleavage is 0.18.

Take U23C U119C G137U: the self-cleavage was 1.77.

On to U23A U45G U87A U132C U134A, for which the self-cleavage was 0.07.

A22G U112C U143C: the self-cleavage came out at 1.63.

Turning to A24U U45A A67G U81C A117U, the self-cleavage is 0.3.

As for A22G U39C A136G, the self-cleavage is 1.18.

In the case of A24C G55A A65G G70A C118G, the self-cleavage amounted to 0.05.

G25A A42G U85A: the self-cleavage turned out to be 0.3.

For U23C A43U C113U A138G, the self-cleavage worked out at 1.17.

Regarding A22G U115C A140G, the self-cleavage was 0.

Turning to U23C A78U U130C, the self-cleavage turned out to be 1.65.

For the variant G25U A57G A138G, the self-cleavage amounted to 0.91.

On to A22G U45C A77G, for which the self-cleavage came to 1.02.

As to A24G A79G G127A, the self-cleavage is 1.13.

In the case of A22U C84U A121C, the self-cleavage was determined as 0.1.

Regarding U23C A57G A78G C111U A142G, the self-cleavage came to 0.54.

Take A24U C56U A141G: the self-cleavage came out at 0.14.

Regarding A22G U96C A129U, the self-cleavage came out at 0.1.

In the case of U23C G83A U112C A140G, the self-cleavage turned out to be 0.77.

As for A22G U47A U62C A92G C110U A117U, the self-cleavage is 0.07.

As to G25A A107G A124G, the self-cleavage stood at 0.86.

Take A24U C71A U109A: the self-cleavage came to 0.07.

Regarding A22G U81C A140G, the self-cleavage worked out at 0.66.

In the case of U23C G114U U115A A121U, the self-cleavage amounted to 1.36.

Regarding A24G G33U U96C, the self-cleavage was 0.27.

For A24G C38A A43U A79G, the self-cleavage was 1.14.

For A22G U130A A140G, the self-cleavage stood at 2.4.

On to A24G G41U U87C U102C A129U, for which the self-cleavage amounted to 0.37.

With A22G U91C U100C, the self-cleavage turned out to be 0.

A22G U46C A50G U96A U100C: the self-cleavage is 0.

As to A24G A31U A42G G58U U62A G93U, the self-cleavage came to 0.05.

With U23C G33U G89A U108C, the self-cleavage worked out at 0.06.

As for U23C C71U A138G, the self-cleavage came to 1.

Regarding U23C G126A U132C, the self-cleavage was determined as 1.1.

As to U23C A77C U143C, the self-cleavage was determined as 0.84.

Consider A24C U62C U85C U132C A140G, for which the self-cleavage is 0.

With A24U U52A A79G A124U, the self-cleavage is 0.25.

For the variant G25U A69U U96A, the self-cleavage was 0.01.

Take A22U C28U U62C A129G A140G: the self-cleavage is 0.05.

As to A24G U52A U96A U112C, the self-cleavage came out at 0.13.

On to A24G U73C U100C, for which the self-cleavage amounted to 2.3.

Take A22G U46C U81A: the self-cleavage is 2.02.

For the variant U23A A77U U130C A142G, the self-cleavage is 0.77.

On to A24G A64U A138G, for which the self-cleavage was 0.74.

G25A A78G U119A: the self-cleavage stood at 1.06.

In the case of A22U U23A U132C, the self-cleavage was found to be 1.2.

Regarding U23A A50G U108C, the self-cleavage was found to be 1.84.

A24G G27A A42G U46C A57G G70A C133U: the self-cleavage was found to be 0.25.

For the variant A24G U96C U100C, the self-cleavage is 1.41.

For A24G U115A A124G, the self-cleavage amounted to 1.03.

Consider U23A U62C G80A, for which the self-cleavage is 0.11.

For A22G U39C A43G A141G, the self-cleavage amounted to 1.42.

With U23A A65G A140G A141G, the self-cleavage was found to be 0.08.

As to U23C U81A G105A A136G, the self-cleavage came out at 2.85.

For the variant A22U A43G U62C A67G, the self-cleavage worked out at 0.

A24G U96A U112C: the self-cleavage is 0.04.

Consider A22U A78G A117U A136G, for which the self-cleavage was 1.6.

Regarding A22U A57G A117G, the self-cleavage amounted to 0.46.

Regarding A22U U45C U52A U81A, the self-cleavage was 2.14.

Turning to A24U A107U U108C U134C, the self-cleavage was 2.45.

As to A24G U45G A59U C128U, the self-cleavage turned out to be 0.3.

Consider U23C A78G U108C, for which the self-cleavage was found to be 0.92.

Take U23C U52A C68U: the self-cleavage was 0.25.

As for A22U U52A U108C U115A, the self-cleavage stood at 1.98.

As to A22G U39C U46A G49A C51U A79G, the self-cleavage came out at 1.38.

In the case of U23C G33A A43G U81A, the self-cleavage came out at 1.16.

Turning to A24U A43G A65U C84U U112C, the self-cleavage turned out to be 0.

Take A22U G32A A67G: the self-cleavage was 0.76.

Consider A24G A65G A94G C95A, for which the self-cleavage amounted to 0.12.

A24G G25U U47C U115C: the self-cleavage was found to be 2.55.

A22U U62C A136G A141G: the self-cleavage was found to be 0.

With A22U A67G A78G, the self-cleavage worked out at 0.57.

On to A22G U39C A43G G72A A77G A117U A138G A141G, for which the self-cleavage stood at 0.71.

On to A22U A64G A67U U100A U143C, for which the self-cleavage came out at 0.08.

Regarding A22G U45C G54A G122A C131U, the self-cleavage worked out at 0.48.

Consider A22U A42G U45C G72C, for which the self-cleavage was 1.11.

On to A22U A77G U132A, for which the self-cleavage was determined as 1.59.

Turning to U23C A79G C99U, the self-cleavage is 0.86.

A24G A107G A141G: the self-cleavage was 1.84.
